In the supplement of paper PMC4967469:
By IC50 is meant the dose at which the fit gives 50% viability; where the fit passes the top or lowest dose, that dose stands as a limit. AUC sums up the same curve from the lowest dose to the 256-fold higher top dose; values near 1 show little effect. For part of these data: Any top dose called inferred was calculated from the reported fits.

Experiments:
Test in all cases: Viability of human cancer cell lines after 72 h of drug (GDSC screen)
[1] = compound: O=c1cc(CN2CCOCC2)occ1OCCCCCSc1ccnc2cc(C(F)(F)F)ccc12 [EHT 1864]; conditions: top dose 10 µM; top dose inferred
Protocol: (§1)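 Human cancer cell lines in 384-well plates, medium with 10% serum, drug for 72 h over a 256-fold dose range (nine 2-fold or five 4-fold steps up to the top dose). Adherent lines were fixed and stained with the nucleic acid dye Syto60, suspension lines read with resazurin; signal relative to control wells, capped at 0 and 100%. One two-parameter sigmoid per drug and line, fitted in a mixed model over all curves with the slope shared within a line.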

[2] = compound: C#Cc1cccc(Nc2ncnc3cc(OCCOC)c(OCCOC)cc23)c1 [Erlotinib]; conditions: top dose 2 µM
Protocol: as §1

[3] = compound: COc1cc2nccc(Oc3ccc(NC(=O)C4(C(=O)Nc5ccc(F)cc5)CC4)cc3)c2cc1OC [XL-184]; conditions: top dose 5.12 µM; top dose inferred
Protocol: as §1

[4] = compound: CNCc1ccc(-c2[nH]c3cc(F)cc4c3c2CCNC4=O)cc1 [AG-014699]; conditions: top dose 5 µM; top dose inferred
Protocol: as §1

[5] = compound: C=CC(=O)Nc1cc(NC(=O)c2ccc(C)c(NC(=O)c3ccno3)c2)cc(C(F)(F)F)c1 [QL-XI-92]; conditions: top dose 10.24 µM; top dose inferred
Protocol: as §1

[6] = compound: N=C(N)NC(=N)NCCc1ccccc1 [Phenformin]; conditions: top dose 4000 µM; top dose inferred
Protocol: as §1

[7] = compound: N[C@@H](CSC(c1ccccc1)(c1ccccc1)c1ccccc1)C(=O)O [S-Trityl-L-cysteine]; conditions: top dose 5.12 µM; top dose inferred
Protocol: as §1

[8] = compound: CCC1=C[C@@H]2CN(C1)Cc1c([nH]c3ccccc13)[C@@](C(=O)OC)(c1cc3c(cc1OC)N(C)[C@H]1[C@@](O)(C(=O)OC)[C@H](OC(C)=O)[C@]4(CC)C=CCN5CC[C@]31[C@@H]54)C2 [Vinorelbine]; conditions: top dose 0.064 µM; top dose inferred
Protocol: as §1

[9] = compound: COc1cc2ncnc(Nc3cc(Br)c(O)c(Br)c3)c2cc1OC [WHI-P97]; conditions: top dose 10.24 µM; top dose inferred
Protocol: as §1

[10] = compound: O=c1cc(N2CCOCC2)oc2c(-c3cccc4c3sc3ccccc34)cccc12 [NU-7441]; conditions: top dose 2 µM; top dose inferred
Protocol: as §1

[11] = compound: COc1cc2ncnc(Nc3ccc(F)c(Cl)c3)c2cc1OCCCN1CCOCC1 [Gefitinib]; conditions: top dose 0.5 µM
Protocol: as §1

Row | Cell Line | AUC [1] | IC50 [1] [µM] | AUC [2] | IC50 [2] [µM] | AUC [3] | IC50 [3] [µM] | AUC [4] | IC50 [4] [µM] | AUC [5] | IC50 [5] [µM] | AUC [6] | IC50 [6] [µM] | AUC [7] | IC50 [7] [µM] | AUC [8] | IC50 [8] [µM] | AUC [9] | IC50 [9] [µM] | AUC [10] | IC50 [10] [µM] | AUC [11] | IC50 [11] [µM]
1 | COLO-829 (melanoma, adherent) | 0.934 | > 10 | 0.953 | > 2 | 0.937 | > 5.12 | 0.953 | > 5 | 0.957 | > 10.2 | 0.97 | > 4000 | 0.959 | > 5.12 | 0.238 | 0.00047 | 0.968 | > 10.2 | – | – | – | –
2 | CTB-1 (B-cell lymphoma, suspension) | 0.947 | > 10 | 0.941 | > 2 | 0.979 | > 5.12 | 0.964 | > 5 | 0.619 | 1.54 | 0.759 | 1890 | 0.8 | 3.62 | 0.676 | 0.0149 | 0.979 | > 10.2 | 0.948 | > 2 | – | –
3 | DSH1 (bladder, adherent) | 0.796 | 4.44 | 0.97 | > 2 | 0.97 | > 5.12 | 0.881 | 4.86 | 0.985 | > 10.2 | 0.986 | > 4000 | 0.866 | 4.23 | 0.485 | 0.00365 | 0.969 | > 10.2 | 0.989 | > 2 | – | –
4 | ECC12 (stomach, suspension) | – | – | 0.471 | 0.102 | – | – | – | – | – | – | – | – | – | – | 0.339 | 0.00126 | – | – | – | – | – | –
5 | HCC1599 (breast, suspension) | – | – | 0.976 | > 2 | 0.925 | > 5.12 | – | – | 0.939 | > 10.2 | 0.555 | 362 | 0.72 | 1.49 | 0.578 | 0.00676 | 0.954 | > 10.2 | – | – | – | –
6 | HCC2998 (large intestine, adherent) | 0.967 | > 10 | 0.987 | > 2 | 0.972 | > 5.12 | 0.944 | > 5 | 0.984 | > 10.2 | 0.746 | 1240 | – | – | 0.563 | 0.00592 | 0.987 | > 10.2 | – | – | 0.986 | > 0.5
7 | KP-N-YS (neuroblastoma, adherent) | – | – | 0.981 | > 2 | 0.879 | > 5.12 | – | – | 0.762 | 4.19 | 0.975 | > 4000 | 0.706 | 1.34 | 0.744 | 0.0225 | 0.962 | > 10.2 | – | – | – | –
8 | LB996-RCC (kidney, adherent) | 0.821 | 7.08 | 0.541 | 0.164 | 0.961 | > 5.12 | 0.873 | > 5 | 0.983 | > 10.2 | 0.96 | > 4000 | 0.806 | 3.12 | 0.948 | > 0.064 | 0.976 | > 10.2 | 0.935 | > 2 | – | –
9 | LOXIMVI (melanoma, semi-adherent) | 0.987 | > 10 | 0.99 | > 2 | 0.959 | > 5.12 | 0.988 | > 5 | 0.981 | > 10.2 | 0.685 | 770 | – | – | 0.841 | 0.0375 | 0.987 | > 10.2 | 0.943 | > 2 | – | –
10 | NCI-H128 (small cell lung carcinoma, suspension) | – | – | 0.98 | > 2 | – | – | – | – | – | – | – | – | 0.979 | > 5.12 | – | – | – | – | – | – | – | –
11 | NCI-H322M (lung adenocarcinoma, suspension) | 0.973 | > 10 | 0.872 | > 2 | 0.977 | > 5.12 | 0.987 | > 5 | 0.977 | > 10.2 | 0.894 | > 4000 | – | – | 0.986 | > 0.064 | 0.758 | 4.36 | 0.921 | > 2 | 0.908 | > 0.5
12 | NCI-H716 (large intestine, suspension) | – | – | 0.981 | > 2 | 0.759 | 2.23 | 0.952 | > 5 | 0.944 | > 10.2 | 0.75 | 1620 | 0.978 | > 5.12 | 0.978 | > 0.064 | 0.971 | > 10.2 | – | – | – | –
13 | NCI-H748 (small cell lung carcinoma, suspension) | – | – | 0.98 | > 2 | 0.945 | > 5.12 | – | – | 0.822 | 8.27 | 0.903 | > 4000 | 0.811 | 3.7 | 0.79 | 0.0377 | 0.911 | > 10.2 | – | – | – | –
14 | NCI-H2171 (small cell lung carcinoma, suspension) | – | – | 0.991 | > 2 | 0.991 | > 5.12 | – | – | 0.863 | 7.01 | 0.849 | 2410 | 0.953 | > 5.12 | 0.895 | 0.0597 | 0.992 | > 10.2 | – | – | – | –
15 | OCI-AML2 (acute myeloid leukaemia, suspension) | 0.952 | > 10 | 0.991 | > 2 | 0.989 | > 5.12 | 0.995 | > 5 | 0.915 | 8.2 | 0.43 | 169 | 0.649 | 0.74 | 0.644 | 0.00896 | 0.97 | > 10.2 | 0.995 | > 2 | – | –
16 | OVCAR-4 (ovary, adherent) | 0.936 | > 10 | 0.809 | 1.76 | 0.924 | > 5.12 | 0.974 | > 5 | 0.972 | > 10.2 | 0.681 | 1040 | – | – | 0.428 | 0.0023 | 0.959 | > 10.2 | 0.929 | > 2 | – | –
